Test results from the RNAGym collection of RNA variant scans (doi:10.7554/elife.90254).
The source gives no read counts; variants with many changes may rest on few reads.

B1: LINE1-full (parent)
chain: UACGUAGGUGGUUUUCCCCUGAUAGUGCUAAGGGGGCCUGGAAGUUUGGACUGGGCAGAGCUCAACACAGCGUGGCAAAGUGGCUGUGGCUAGACUGCCUCUCUGGAUUCCUCGUCACUCAGCAGGGCAUCUCUGAGAGAAAUGCC

Variants of: B1
Assay: self-cleavage, relative activity (ratio to wild type); higher = more cleavage; in vitro, sequencing; the parent is a self-cleaving ribozyme

Variant	self-cleavage
G4A A30G U100A U104A	0.9
A2G U47C U132C	1.64
A2G U45C U46C	0
A2G U47A U102C	1.25
A2G U87C U115C	0
A2G U52C G88A U143A	0.12
C3U U104A U134C A136G	1.25
C3U G11A G55A A117G	0.62
C3U U91C G122U	0.61
C3U U14A A107G	0.89
A2U A31G U134C	1.12
C3U A31G G74A U132C U143A	1.08
A2U U13C G122A	0.54
C3U U39C A121G	0.61
C3A U47C A67U	0.11
A2U U13A U23C U96C A138G	0.26
C3U U13A U46C U62C A64C G127C	0.35
C3U U13C U62C A121G A124U A141G	0
C3A U14C U47C	1.02
C3U G49A U104C U115C	1.1
A2U U13C A24G C37U A141G U143C	1.03
C3U A69U U73A U87A	0
C3U U12C U132A U134C A142C	1.52
G4A A30U U52A	1.29

Variant	self-cleavage
A2G U46C U73A	0.75
A2U U26C A42G G54A U96C	0.08
G4A A43U U47C	1.23
G4A A129G A138C	0
C3U U47A A69G G105A A138G	0.72
A2G U100A U130A	0.41
C3U A50G C61G	0.22
C3U U39A G55U A142U	0.06
A2G U73A A121G A138G A141G	1.15
A2U U52A A64U U96C A142G	0.11
C3U C76U A129G	1.41
C3G U81C C113U	1.03
C3U U13A G32U	1.08
G4A A22C C110A A140G	1.47
C3U U12C A43G U109C A124G	0
A2U U5C C19G A77G	1.84
A2U A6U U12C A77G	0.71
C3U U119C A124U C131A A140G	0.95
C3U A124G U134C A140G A142G	0.68
C3U U81C A121U	0.29
A2G U115C A142G	1.15
A2U A69G A141G	0.42
A2U U13G A22U U23C U47A C99U	0.61
C3A G25A U134C	0.77

Variant	self-cleavage
A2U U9A U13C A69G A94C U108A	0
A2G U62A U104A	0.16
A2G U87A U100A	0.07
C3U A78U A129G	1.43
A2U U12A U13G U96C A138G	0
C3U A42G A124C	0.69
A2G U46A U62A	0.15
A2U A65U G105A	0.06
C3U A24G U91A A92G U119C A140G C146U	0
A2G U96C U119C A140G	0
A2U U62C A77G	0.25
A2G U132C U134C	0
C3U A6U A57G	0.84
A2G U46C U62C A69G	0
A2U U5C G21A U45C G54A A138G	1.44
A2U G82A A94G	0.16
C3U G4A U15C	0.35
A2G U73C G135A G137A	0
C3A U23C A117U	1.2
C3U U115C U134A	2.04
A2U U20A U39C U108A	0.8
C3A U45C A69G A77G	0
C3U U119C C145A	1.7
A2U A77G A140G A141G	2.97

Variant	self-cleavage
A2G U45C A57G G139A	0.19
A2U A67U U130C C145G	0.29
A2U U12C A117U	0.6
C3A U13C U39C U62A	0.16
C3U A57U A140G	0.29
A2G U52C G53A C76U U104C	0.66
A2U U104A C113U	0.53
A2U U13C U39G U109C	1.06
A2G U46C G58U U132C	0.17
G4A A43G U62C	0.1
C3U U20C U130C	1.05
C3A G72A U73A A78U U112G	1.75
A2U U45A U62C	0
C3U A79G C113U U134G	0.55
C3U U39C U91C U100C	0
A2G U46C A57G	0
C3U U26C U119A	1.04
C3U A24G C37U U46C A50G A64G C99A A117U	0.13
A2U A57G U91C A107G A138G	0
A2U U26C C103A	0.95
C3U A31U A67G	0.59
C3U C98U U132C	0.36
A2U A6G U14C G54A A67G U119C	0.33
A2U A42G U102C A117U	1.25

Variant	self-cleavage
C3U A30G U112A A129G A141G	1.12
A2U U81A A107U U112C A121G	1.15
A2G U52C A124G	0.57
C3A U47C U62A A77G	0.38
A2G U47C A92U	0.43
A2G U85C U132C	0
A2G U52A G97C C113U A129G U132A	0.44
C3U G58A U115A	0.29
C3U U45A U108C U132C	0.8
C3U U5C U15C U47A G82A U115A A129G	1.34
A2G U87A U115C	0
A2U U13C U39A U130C	0.66
C3G U29C U102C	0.84
C3U U29C U87C	0
G4A A42G U47C U102C A124U U134A	1.02
C3U G36A A43U	0.34
A2G U91C U100C	2.3
A2U A43G A121U	0.79
C3A U13C U15C A43G	1.1
C3U A59U A69G A78U	0.37
A2U U13A U47C C56G	0.17
A2G U104A C113U U134C	1.13
C3G A64G A136G	0.35
C3U A24U A77G U130C	0.92

Variant	self-cleavage
A2U C19A C38A A50G A69G A138G	0.22
C3U A67U G89A A129U	0.08
C3U A69U A94G	0
C3U A65G U96C G97U U108C	0.14
A2G U45C A129G	0.73
C3G U14C U81C A124G	0
G4A A57C U115A A129U	0.18
A2U U73G U81C	0.9
C3U U15A U39A U87G	0.63
A2G U96C G114A	0
C3U U46C A92U	0.28
C3U G36C A65G G75A A78G	0.11
A2G U62A A67C A138G	0.16
A2G U109C A138G A140G	1.41
A2G U46A U115C	0.34
C3U U9A U29A A117G	1.15
C3U U9C U12G A92U U96C	0
A2G U104C U130A A138U	1.72
A2G U62A U73A U132C	0.18
A2G U73C A140G	0
A2U A69G C128U	0.55
C3U U52C U62C A78U A140U G144A	0.21
A2G U96C A124C	0
A2U A50G G137A A141G	0.34

Variant	self-cleavage
A2U A43U U45C	0.35
C3U U91C U96C	0
A2G U47A U119A	0.96
A2U A30G U87A	0.16
C3U A30G G33U	1.27
A2U A78G U115A	1.16
A2G U108C A136G	2.3
C3U G40A U104A G137U	0.95
C3U U52A A65G	0.12
C3A U20A U29C U119C C128G	1.23
A2G U115A A141U	0.81
C3G U9C U87A	0.24
A2G U81C A136G	1.02
C3U G33A U52A	0.68
A2G U47A A117G	1.41
A2G U46C G75A	0.56
A2G U46C G75C	0.6
A2G U46C A138U	1.2
G4A A6C U29A U39C A141G	0.93
A2U U23C A24U U100C A136G	0.8
C3U C28U A31G	1.2
A2G U100C C113A A136G A141C	1.91
C3U U112A G127C	0.71
